Measurements as given in a collection of fitness landscapes (doi:10.1126/science.1257360).
Some of the results follow.

B1: PhoQ; a variant is named by its letters at X, in order, P23837 (parent)
chain: MKKLLRLFFPLSLRVRFLLATAAVVLVLSLAYGMVALIGYSVSFDKTTFRLLRGESNLFYTLAKWENNKLHVELPENIDKQSPTMTLIYDENGQLLWAQRDVPWLMKMIQPDWLKSNGFHEIEADVNDTSLLLSGDHSIQQQLQEVREDDDDAEMTHSVAVNVYPATSRMPKLTIVVVDTIPVELKSSYMVWSWFIYVLSANLLLVIPLLWVAAWWSLRPIEALAKEVRELEEHNRELLNPATTRELTSLVRNLNRLLKSERERYDKYRTTLTDLTHSLKTPLXXLQXXLRSLRSEKMSVSDAEPVMLEQISRISQQIGYYLHRASMRGGTLLSRELHPVAPLLDNLTSALNKVYQRKGVNISLDISPEISFVGEQNDFVEVMGNVLDNACKYCLEFVEISARQTDEHLYIVVEDDGPGIPLSKREVIFDRGQRVDTLRPGQGVGLAVAREITEQYEGKIVAGESMLGGARMEVIFGRQHSAPKDE

Variants of: B1
Test: enrichment ratio after two sorts for PhoP signalling (ratio (wild type AVST 3.29)); higher = more functional
Settings: with PhoP (E. coli)

Variant | enrichment ratio
VMGM | ≤ 0.25
SPQK | ≤ 0.25
HDNC | ≤ 0.25
NIST | ≤ 0.25
AYQP | ≤ 0.25
MMNI | ≤ 0.25
LANP | ≤ 0.25
HRFK | ≤ 0.25
ATNL | 5.25
FFGC | ≤ 0.25
VTRN | ≤ 0.25
SNHM | 0.971
QRSM | ≤ 0.25
VVPN | 0.63
IRQD | ≤ 0.25
RMNT | ≤ 0.25
KTMA | ≤ 0.25
ERIQ | ≤ 0.25
SFQE | ≤ 0.25
GHKA | ≤ 0.25
PNQL | ≤ 0.25
TTIA | 4.48
DLIK | ≤ 0.25
WWSY | ≤ 0.25
YTMQ | 0.469

Variant | enrichment ratio
MDQI | ≤ 0.25
SWDV | ≤ 0.25
PTYV | ≤ 0.25
WRSP | ≤ 0.25
MNTK | ≤ 0.25
ARWE | ≤ 0.25
LNGW | ≤ 0.25
DHSF | ≤ 0.25
MHEW | ≤ 0.25
FWDR | ≤ 0.25
QPTC | ≤ 0.25
QCGI | ≤ 0.25
RQCI | ≤ 0.25
EDNV | ≤ 0.25
PYMH | ≤ 0.25
LSSV | ≤ 0.25
PDSR | ≤ 0.25
ICEY | ≤ 0.25
PIGR | ≤ 0.25
FCWH | ≤ 0.25
DLKS | ≤ 0.25
YGDD | ≤ 0.25
DIHQ | ≤ 0.25
DAPH | ≤ 0.25
ASCH | 13.6

Variant | enrichment ratio
TSKI | ≤ 0.25
FEYD | ≤ 0.25
HFYQ | ≤ 0.25
ACVF | 11.9
DNGA | ≤ 0.25
QSND | 1.9
HIPD | ≤ 0.25
WHDK | ≤ 0.25
WEWP | ≤ 0.25
MLRK | ≤ 0.25
WHYW | ≤ 0.25
GSCT | 7.04
HWMD | ≤ 0.25
HWKH | ≤ 0.25
VNQP | ≤ 0.25
YIRP | ≤ 0.25
AAAF | 2.38
VDRP | ≤ 0.25
IFAI | ≤ 0.25
WFPV | ≤ 0.25
ERES | ≤ 0.25
ACKK | ≤ 0.25
KFYK | ≤ 0.25
PWHW | ≤ 0.25
DLSG | ≤ 0.25

Variant | enrichment ratio
YHLC | ≤ 0.25
GNDI | ≤ 0.25
AMNF | ≤ 0.25
HQLW | ≤ 0.25
WINR | ≤ 0.25
VAFS | ≤ 0.25
QMIQ | ≤ 0.25
AECF | 2.16
QVLQ | ≤ 0.25
RFSY | ≤ 0.25
YTNN | ≤ 0.25
IMQV | ≤ 0.25
SMTE | 1.78
WFRD | ≤ 0.25
SGVR | ≤ 0.25
GKVN | ≤ 0.25
HYFC | ≤ 0.25
GHKM | ≤ 0.25
ASWH | ≤ 0.25
VKLC | ≤ 0.25
VQLT | ≤ 0.25
AIQL | 11.7
FQCS | ≤ 0.25
GPKR | ≤ 0.25
WHWI | ≤ 0.25

Variant | enrichment ratio
IKHR | ≤ 0.25
VLRY | ≤ 0.25
VAQI | ≤ 0.25
KECR | ≤ 0.25
PMLQ | ≤ 0.25
INRV | ≤ 0.25
DLDP | ≤ 0.25
VERY | ≤ 0.25
HITY | ≤ 0.25
DYNV | ≤ 0.25
ADWS | ≤ 0.25
IDRL | ≤ 0.25
FSGI | ≤ 0.25
TKEL | ≤ 0.25
SASN | 7.84
DCMA | ≤ 0.25
DPII | ≤ 0.25
GDMK | ≤ 0.25
DIKV | ≤ 0.25
YGPN | ≤ 0.25
WCNF | ≤ 0.25
HAKM | ≤ 0.25
DDIY | ≤ 0.25
YTIF | ≤ 0.25
FIKF | ≤ 0.25

Variant | enrichment ratio
KQKI | ≤ 0.25
MLCL | 8.17
RHVW | ≤ 0.25
DFMV | ≤ 0.25
SFGY | ≤ 0.25
HWCM | ≤ 0.25
FIFQ | ≤ 0.25
SSLV | 16.8
DYSI | ≤ 0.25
SCVV | 4.84
QSCG | ≤ 0.25
ETGM | ≤ 0.25
ERMF | ≤ 0.25
HGGG | ≤ 0.25
MGYY | 9.39
PGQQ | ≤ 0.25
AKLL | 14.3
NNYM | ≤ 0.25
SRTY | ≤ 0.25
NTKP | ≤ 0.25
PEEP | ≤ 0.25
SRVI | 4.38
LRET | ≤ 0.25
LFSW | ≤ 0.25
GYAM | ≤ 0.25

Variant | enrichment ratio
PDDV | ≤ 0.25
GEDH | ≤ 0.25
GAML | 8.92
FTGM | ≤ 0.25
FEYP | ≤ 0.25
RTPI | ≤ 0.25
PRMI | ≤ 0.25
LQEF | ≤ 0.25
GNAA | ≤ 0.25
FFTM | ≤ 0.25
VLNW | ≤ 0.25
MIWE | ≤ 0.25
PTVS | ≤ 0.25
CQQT | ≤ 0.25
TWWN | ≤ 0.25
GFGE | ≤ 0.25
EAKH | ≤ 0.25
LRIV | ≤ 0.25
DLFG | ≤ 0.25
LCPK | ≤ 0.25
GNLW | ≤ 0.25
ISIC | ≤ 0.25
HAPR | ≤ 0.25
SASY | 5
HLLC | ≤ 0.25

Variant | enrichment ratio
ETTS | ≤ 0.25
TCLD | ≤ 0.25
LPPC | ≤ 0.25
SLEP | ≤ 0.25
WRME | ≤ 0.25
QHPS | ≤ 0.25
MHWH | ≤ 0.25
RRGY | ≤ 0.25
GGDK | ≤ 0.25
HDKQ | ≤ 0.25
DRPQ | ≤ 0.25
SLVK | 1.38
RKKY | ≤ 0.25
TFCD | ≤ 0.25
NPQV | ≤ 0.25
RTGR | ≤ 0.25
EMRG | ≤ 0.25
VDAC | ≤ 0.25
AITK | 3.04
FDYD | ≤ 0.25
